Measurements from the supplement of paper PMC11417369.
This is one part of the list.

What follows are sequences tested on PfAP2-HC AP2 domain (GST-tagged) (assay: gcPBM binding intensity (ln(normalized median fluorescence intensity)); higher = stronger DNA binding).
Method in brief: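 Alexa488 anti-GST antibody, scanned at 488 nm, detected GST-tagged P. falciparum DNA-binding domains that had been expressed in E. coli and incubated for 1 h on an Agilent 4 × 180k array. The array carried primer-extended double-stranded 36-bp intergenic genomic probes and negative controls. Binding intensity is the highest Masliner-normalised natural-log median intensity across replicate spots of either orientation of each probe.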

Sequence | gcPBM binding intensity (ln)
ATAAGAAAATATAAAATGCACACTATAAATTGTATA [CACACA_site143] | 9.84
TATATAGAGAGATATGCACACTGTATGAATGCCCCC [CACACA_site5476] | 10.1
TATACCTATATACATACATGCAAATATATATTCATA [TGCATGCA_site269] | 9.63
TTGTAAAACTTATAATGTACATTTTTTTTTTTTTTT [XGTACX_site5398] | 9.47
AGGGACATCTATATCACACACAAAAATTAGTCCCTT [CACACA_site7330] | 9.88
TATTTCTGATTACATACACACATATACAGATATGAC [CACACA_site7490] | 9.77
TATATACCTATATACACACACATATATAAATAAATA [CACACA_site7341] | 10.1
TTTACCTCTTCAATGGTGCAATAACTCAAAAATTTG | 9.46
TTTTTATTTTATTAGTGTACTTTATATTTAACAATA [XGTACX_site1175] | 9.64
AAAAAAAAAAAAAGTACACACATACCTATAAATATA [CACACA_site6937] | 10.5
ATAAATAAAATAAAAGCACACAAAATGTAAATAATT [CACACA_site8895] | 10.2
TTTATATACATTTTAAATTTTAATGTAACCCATGGG [TGCATGCA_negctrl_site115] | 9.23
TATATATTTATAAATGAACACACACCCAATTTGAAT [CACACA_site9113] | 10.8
TTTATTTTTATAAGAGCATGCACTGTTTAAAATGGT [TGCATGCA_site628] | 9.37
TTATATATAATATATACACACACATGTATATATAAA [CACACA_site8603] | 9.94
TATGTTCCATTTTTTGGTACACATACAATAACTGCT [XGTACX_site2256] | 9.55
ATTACATACGAGCACACGTAAAAGTATAATATAAAA [GTGCAC_negctrl_site446] | 9.79
TTTGTATTGTGCAGATGTACATTATAATATTGGATT [XGTACX_site5033] | 9.59
AACAAATACAAAGAATAGTCATCTGAATGGTGTTAT [GTGCAC_negctrl_site685] | 9.98

Sequence | gcPBM binding intensity (ln)
AAATTAATAAGTCACACACACATATATAATATATAT [CACACA_site799] | 10.4
AATATATACATTTATATACACACCTATATATATATA [CACACA_site1972] | 9.83
GTTATATGTTATATATATATATATATATATATATAT [TGCATGCA_negctrl_site428] | 9.86
AGCATCATTTTACACACATGCAAATGTAAAATAGGA [TGCATGCA_site460] | 9.83
CATATACATATATGTAGTACGTGTTCTTCTATATGA [XGTACX_site8344] | 9.69
TACATATACAGACACACACACACACCCCCACAAAAA [CACACA_site495] | 10.8
ATTAATATGAAACGATTATAAGAAAGAAAAGAAATG [GTGCAC_negctrl_site701] | 9.7
AAATTGAATTAGTTAACACACAACTTTTATTTCATA [CACACA_site2840] | 9.73
TATATATATTTATGTACACACATCAATCATATTAAC [CACACA_site5127] | 9.88
ATAAAGATTAATTCAAGTACACATCAAATACTACAA [XGTACX_site8794] | 9.88
TGTATACATTCTGAATGTACGGAACACCTCATAACT [XGTACX_site7240] | 9.56
TTTGTAATAAATAAGAGTACAAGTATGGTTCCACTA [XGTACX_site2579] | 9.67
TATTTATTGTGACACTTATATTATTTTATGATTAAA [CACACA_negctrl_site525] | 9.58
AATAATACATCCTTAGTGCAGAAATAAAAATTAAGC [GTGCAC_site9955] | 9.74
TATAAAATGATGATATGTACTTATGTAGTTTTTTTA [XGTACX_site8711] | 9.59
TTTTCATTTGTGACAGTGCAAAATGTTATATTAAAA [GTGCAC_site9647] | 9.42
AATATATGGTTTCATGATATTAAATTCAAAATAATG [CACACA_negctrl_site318] | 9.54
CATATATATTTTATTTGTACGTATAAAAAAACAAAA [XGTACX_site4253] | 9.51
ATATGAAAAAGAACTTGTACTAAAGTGGCATATTAT [XGTACX_site8520] | 9.77

Sequence | gcPBM binding intensity (ln)
TAAATACTTGTATATAGTACAAGTTGTTTTTTTTAA [XGTACX_site5643] | 9.35
AAAAAAAAAAAAAACACACACATATAAATATAAATA [CACACA_site6972] | 10.4
TGGAACCTTTAAAATACACACCCAAATCCTTTGAAA [CACACA_site7671] | 9.79
ATTATTTGAAACTATTGTACATTTAAAAACATTTTT [XGTACX_site4896] | 9.46
ATTGGACTATAAATAGGTACACATATATATATATAT [XGTACX_site7562] | 10.3
TCATATATTCAAAAATTTAAAGTTAATAAAACTTGA [CACACA_negctrl_site1546] | 9.06
TTATATTATGTTCAATCAAAAATTATTTTTAAAAAA [XGTACX_negctrl_site595] | 8.98
AATGTGTTTTTTTTTTTTTTTTTTTTCAATCTCTAT [CACACA_negctrl_site794] | 9.49
GAAAAAAGAAAAAAAAGTACACACATGTATATTAAT [XGTACX_site5265] | 9.87
AATGTACACCCACCCACACACAAACAAATATATATA [CACACA_site5521] | 10.3
TTTTTGTTTGAACACTGTACGTATAAATATAAAAGT [XGTACX_site6476] | 9.54
TTTCAAATTTAATACACACACAAGTATATATTTATC [CACACA_site3947] | 9.88
TTGTGTTATCACACGAAGGGGATAAGACATAAATGT [TGCATGCA_negctrl_site368] | 9.58
TATATATAAAAACACACACACACACCCTATAATTAT [CACACA_site4063] | 11.3
TAAGACAATAAATGCTGTACAATTGAATATCTTGGA [XGTACX_site636] | 9.64
TTATAAAAATTTAGTTGTACATGTCAAATTATCAAT [XGTACX_site7229] | 9.47
TTTTTTGTACCAAAAAAAAAAAAAAGAAAAAAAAAC [CACACA_negctrl_site1416] | 9.41
TATTTTATTATTATTATTTCTTTATAGTGTATTCTA [CACACA_negctrl_site517] | 9.65
